± gives the standard deviation of the averaged measurements. This is one part of the list.

In this assay the test system is PfAP2-I AP2 domain 3 (GST-tagged). Kind of assay: gcPBM binding intensity (ln(normalized median fluorescence intensity)); higher = stronger DNA binding. Put shortly:
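Binding intensity is the highest Masliner-normalised natural-log median intensity over replicate spots in either probe orientation. To obtain it, GST-tagged P. falciparum DNA-binding domains made in E. coli were incubated for 1 h on an Agilent 4 × 180k array of primer-extended double-stranded 36-bp intergenic genomic probes plus negative controls. Detection used Alexa488 anti-GST antibody with scanning at 488 nm.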
On to “TCCACAAAGCATGTAACACACAACATATAAGACATA [CACACA_site972]”, for which the “gcPBM binding intensity (ln)” value was determined as 7.76 ± 0.51. Take “TATTAAAAAGAGGTGACACACACATATAAATCTAAA [CACACA_site9243]”: the “gcPBM binding intensity (ln)” value was 7.6 ± 0.65. Consider “TATATATTTTATTTATGTACGAAAATAAATTAAATT [XGTACX_site3628]”, for which the “gcPBM binding intensity (ln)” value is 7.63 ± 0.33. As for “TTAAAAAAATTAATATGTACATATATTTATATATAT [XGTACX_site5317]”, the figure is 8.13 ± 0.45; as for “AATATTTTAATGCACACACACAAAAAAAAAAAAAAA [CACACA_site7374]”, 11.5 ± 0.73; as for “AATCCTTTACGACACACACACAAAAAAAAAAAAAAA [CACACA_site6449]”, 8.15 ± 0.41. As for “TGTTGGCAGGTGAATGCATGCATATAAGTCTATCTG [TGCATGCA_site781]”, the “gcPBM binding intensity (ln)” value came out at 8.02 ± 1.1. The same measure for “CACCCTTTACACAAGGTGCATACTTTATTATATTTT [GTGCAC_site9778]”: 9.305 ± 0.049. Take “TTTTTCTTTCTTTCTTTTTTAATATTACAAATGTAT [XGTACX_negctrl_site267]”: the “gcPBM binding intensity (ln)” value is 8.06 ± 0.58. Regarding “TTATTAAAACAAAATGTACACACATATAATTTAATG [CACACA_site8193]”, the “gcPBM binding intensity (ln)” value was 7.83 ± 0.26. The same measure for “TTCAATGCATGTCCATGTACATATAAAAAAAAATAC [XGTACX_site1597]”: 8.29 ± 0.4; for “AAAGTAGAATATCCCCTACACACCCAAATAATTTAC [CACACA_site1255]”: 8.38 ± 0.6; for “TTTTTGATATTAAAGGGTACATTATTTACAAAAAAA [XGTACX_site5284]”: 7.68 ± 0.57. As for “AAAACAAACATTACACGTACAAAACAAGTTATAGAC [XGTACX_site6320]”, the figure is 8.12 ± 0.45; as for “ATTCTTTTATTTAGTAGTACATTTGTATTTTATTCA [XGTACX_site5790]”, 8.06 ± 0.45.

Regarding “GATCCTGGTTCTTGTGGTACTTGTTCATTTGTTATA [XGTACX_site7164]”, the “gcPBM binding intensity (ln)” value worked out at 7.77 ± 0.79. As for “ATGCTTTTTTATAAAAGTACATAAAGTTTTTACACT [XGTACX_site7307]”, the figure is 7.99 ± 0.36; as for “CTGCCTTCCATACCCACACACTTCCCATATATTTTA [CACACA_site5491]”, 8.35 ± 0.58; as for “TTTTTTATTGTGAAACTGATATTATATTTTTTATAA [GTGCAC_negctrl_site559]”, 7.41 ± 0.57. The same measure for “TAAACATTTTTAATTTTGTAAAATTTTAAATAAAAA [XGTACX_negctrl_site612]”: 7.49 ± 0.54. Consider “TGAATATTTTATGATTGTACATATTATAATAAACAT [XGTACX_site6113]”, for which the “gcPBM binding intensity (ln)” value came to 7.8 ± 0.55. On to “ACAAACAAAGAAAGAACACACATACACAAGATACCT [CACACA_site7353]”, for which the “gcPBM binding intensity (ln)” value stood at 7.75 ± 0.67.

For “TCGAACATTAACATAACACACATATAGATTTATATA [CACACA_site7380]”, the “gcPBM binding intensity (ln)” value came out at 7.8 ± 0.25. In the case of “TATTATATATATAGGTGTACGCATTTGTCCTTTATA [XGTACX_site1385]”, the “gcPBM binding intensity (ln)” value amounted to 7.79 ± 0.57. As to “AAACTTATGTTTACATGTACAGAACTTTATATTATG [XGTACX_site4843]”, the “gcPBM binding intensity (ln)” value was determined as 7.58 ± 0.52.

Consider “TTGTATGCTTCCCGACTACATTATGCCATAAATGTA [TGCATGCA_negctrl_site136]”, for which the “gcPBM binding intensity (ln)” value was 7.92 ± 0.49. “TTATTCTTTAACTAAAATTATATATATATATTATAC [CACACA_negctrl_site1597]”: the “gcPBM binding intensity (ln)” value turned out to be 7.6 ± 0.52.

Consider “TTAAGAATATTTTCATGTACTCATTTTTTTTGTTAT [XGTACX_site1814]”, for which the “gcPBM binding intensity (ln)” value is 7.79 ± 0.4. As for “AATAAAAATATATCCACACACATATATAAATATGTA [CACACA_site6415]”, the figure is 7.79 ± 0.2.

For the sequence “ATAACTTATTTTTAAAGTACATTATTATATATATAT [XGTACX_site1620]”, the “gcPBM binding intensity (ln)” value came to 8.915 ± 0.007.

As to “ATTGTAATAAATTGTAGTACATGTAAGGTTTTATTT [XGTACX_site1005]”, the “gcPBM binding intensity (ln)” value was determined as 7.88 ± 0.55.

For “ATTACATATGTGAGTTGTACTATAAATATATAATAT [XGTACX_site3718]”, the “gcPBM binding intensity (ln)” value came out at 7.88 ± 0.3.

Turning to “TTTATTATCTTATTCACACACATATATATATATATA [CACACA_site2869]”, the “gcPBM binding intensity (ln)” value came to 9.4 ± 0.36. The same measure for “ATATATTTTTACCATACACACATATAACAAATATAT [CACACA_site7706]”: 8.24 ± 0.48; for “AGAAAAAAAAAAAAAAAAAAAAAATTGAATATATAT [TGCATGCA_negctrl_site55]”: 7.67 ± 0.81. As for “GAAGAATAAATATGCACACATGCATATATTTTTACA [CACACA_site3459]”, the figure is 10.3 ± 0.32; as for “TACAATTCGTAATACACACACATATATATATATATT [CACACA_site3751]”, 8.02 ± 0.38. Regarding “TAAAAAAATTTAACATGTACAAATATTGAAAAGGAC [XGTACX_site7608]”, the “gcPBM binding intensity (ln)” value is 8.61 ± 0.49. For the sequence “ATTAAAAAAGAATATACACACCAAAACTGTTTGTTA [CACACA_site4687]”, the “gcPBM binding intensity (ln)” value amounted to 7.58 ± 0.37. As for “GTAAGTTGTGCATTCACACACATATATATATATATA [CACACA_site3303]”, the figure is 9.92 ± 0.18. As for “TTTTGTTTCTATATAAGATGGAAATATAAACTTGTA [CACACA_negctrl_site82]”, the figure is 7.64 ± 0.47; as for “TTAAGATCCTAAAAAACACACAATTGTGAATAATAA [CACACA_site3872]”, 7.63 ± 0.8; as for “TATATATATATATATACATGCATATATATAATATAT [TGCATGCA_site763]”, 9.24 ± 0.57. As for “AAATATATATAAATGAGTACTTATGGTAACATATAT [XGTACX_site6362]”, the figure is 7.79 ± 0.46.

The values are drawn from the supplement of paper PMC11417369.
